We go through 67 compounds from article PMC3199943, “Screening the MayBridge Rule of 3 Fragment Library for Compounds That Interact with the Trypanosoma brucei myo-Inositol-3-Phosphate Synthase and/or Show Trypanocidal Activity” (Molecular Biology International, 2011).

SMILES strings stand for the structures. Counter-ions that a name gives are not always drawn.

The test system of one assay is cultured bloodstream T. brucei (strain 427). The assay can be described thus: microbe, parasite or virus in culture. Conditions: Trypanosoma brucei, read-out: T. brucei Alamar Blue.
With `OCC1Cc2ccccc2O1` (stereo not drawn) [compound 187, 2,3‐dihydro‐1‐benzofuran‐2‐ylmethanol], the viability at 500 µM worked out at 66.8 ± 21.8%.
Still for that read-out and setting: under `O=C(O)c1c[nH]c2ccccc12` [compound 273, 1H‐indole‐3‐carboxylic acid] stands 88.6 ± 8.8%; under `Cc1nc(C#N)cs1` [compound 67, 2‐methyl‐1,3‐thiazole‐4‐carbonitrile], 106 ± 18%; under `N#Cc1cnccc1C(F)(F)F` [compound 358, 4‐(trifluoromethyl)nicotinonitrile], 112 ± 7.2%.
On the same count and under the same terms, under `COC(=O)c1cccs1` [compound 138, methyl thiophene‐2‐carboxylate] stands 111 ± 2.8%; under `CCN(CC)CCc1ccccn1` [compound 443, N,N‐diethyl‐N‐[2‐(2‐pyridyl)ethyl]amine], 98.7 ± 8.7%.
On the same count and under the same terms, under `Cc1ccc(-c2cnco2)cc1` [compound 259, 5‐(4‐methylphenyl)‐1,3‐oxazole] stands 90.2 ± 12.5%; under `OCc1ccccc1-n1cccc1` [compound 371, [2‐(1H‐pyrrol‐1‐yl)phenyl]methanol], 38.3 ± 1.4%; under `O=C1CC(C(=O)O)c2ccccc21` (stereo not drawn) [compound 409, 3‐oxoindane‐1‐carboxylic acid], 119 ± 18.3%.
Regarding `Cc1nc(-c2cccc(N)c2)cs1` [compound 546, 3‐(2‐methyl‐1,3‐thiazol‐4‐yl)aniline], the viability at 500 µM came to 52.8 ± 15.6%.
Same read-out and setting: under `COc1ccc(Cl)cc1C(=O)O` [compound 508, 5‐chloro‐2‐methoxybenzoic acid] stands 92.5 ± 12%; under `O=C1CC(c2ccccc2)=NO1` [compound 272, 3-phenyl-4,5-dihydroisoxazol-5-one], 60.1 ± 21%.
For the compound `Cc1ccc2cc(CO)ccc2n1` [compound 374, (2‐methyl‐6‐quinolinyl)methanol], the viability at 500 µM stood at 74.9 ± 15.6%.
The same measure, in the same setting: the figure for `CC(=O)c1sccc1N` [compound 133, 1‐(3‐amino‐2‐thienyl)ethan‐1‐one] is 56.3 ± 21.4%.
Still for that read-out and setting: the figure for `O=C(O)C1NCCS1` (stereo not drawn) [compound 103, 1,3-thiazolane-2-carboxylic acid] is 77.9 ± 15.6%; for `Nc1ccc(F)cc1F` [compound 88, 2,4‐difluoroaniline] it is 45.4 ± 8.9%.
Consider `NC1CCN(Cc2ccccc2)CC1` [compound 548, 1‐benzylpiperidin‐4‐amine], for which the viability at 500 µM was found to be 39.5 ± 10.8%.
Still for that read-out and setting: under `O=C(O)Cc1ccc(Cl)c(Cl)c1` [compound 659, 2‐(3,4‐dichlorophenyl)acetic acid] stands 36.2 ± 19.3%.
Regarding `Nc1ccccc1N1CCCC1` [compound 289, 2‐pyrrolidin‐1‐ylaniline], the viability at 500 µM was 20.1 ± 5.4%.
Still for that read-out and setting: the figure for `NC(=S)c1ccsc1` [compound 148, thiophene‐3‐carbothioamide] is 74.6 ± 6.6%; for `OCc1ccc(-c2cccnc2)cc1` [compound 489, (4‐pyrid‐3‐ylphenyl)methanol] it is 82.7 ± 13.7%.
Turning to `Cc1[nH]c2ccc(C(=O)O)cc2c1C` [compound 537, 2,3‐dimethyl‐1H‐indole‐5‐carboxylic acid], the viability at 500 µM came to 85.3 ± 0.3%.
`N#Cc1cc(N)ccc1-n1cccc1` [compound 471, 5‐amino‐2‐(1H‐pyrrol‐1‐yl)benzonitrile]: the viability at 500 µM was 42.4 ± 15.4%.
As for `CN1CCN(C)C1=O` [compound 35, 1,3‐dimethylimidazolidin‐2‐one], the viability at 500 µM amounted to 92.2 ± 13%.
`FC(F)(F)c1cc[nH]n1` [compound 114, 3‐(trifluoromethyl)‐1H‐pyrazole]: the viability at 500 µM stood at 86.2 ± 19.7%.
For `CSc1ccccc1CN` [compound 217, 2‐(methylthio)benzylamine], the viability at 500 µM stood at 81.9 ± 10.4%.
Turning to `Cn1ccc2c(C(=O)O)cccc21` [compound 399, 1‐methyl‐1H‐indole‐4‐carboxylic acid], the viability at 500 µM was 77.4 ± 9.9%.
On to `Cc1cccc(CN)c1C` [compound 113, 2,3‐dimethylbenzylamine], for which the viability at 500 µM was found to be 74.5 ± 13.2%.
As to `CCOC(=O)c1[nH]c(C)cc1C` [compound 330, ethyl 3,5‐dimethyl‐1H‐pyrrole‐2‐carboxylate], the viability at 500 µM was 90.7 ± 1.7%.
For `CCCCc1nc(CO)c[nH]1` [compound 223, (2‐butyl‐1H‐imidazol‐4‐yl)methanol], the viability at 500 µM worked out at 100 ± 6.7%.
Turning to `c1ccc(-c2cc[nH]n2)cc1` [compound 150, 3‐phenyl‐1H‐pyrazole], the viability at 500 µM was found to be 51.9 ± 12.6%.
For the compound `O=C(O)c1cccc(-c2ccncc2)c1` [compound 614, 3‐pyrid‐4‐ylbenzoic acid], the viability at 500 µM worked out at 41.6 ± 12.5%.
Turning to `Cc1noc(N)c1C` [compound 32, 3,4‐dimethylisoxazol‐5‐amine], the viability at 500 µM amounted to 96.2 ± 10.7%.
Same read-out and setting: under `Cc1nc(C(=O)O)cs1` [compound 146, 2‐methyl‐1,3‐thiazole‐4‐carboxylic acid] stands 102 ± 14.9%; under `C#Cc1ccc(OCCCC)cc1` [compound 388, 1‐butoxy‐4‐eth‐1‐ynylbenzene], 100 ± 10.8%.
On the same count and under the same terms, under `Cn1ccc2cc(C(=O)O)ccc21` [compound 394, 1‐methyl‐1H‐indole‐5‐carboxylic acid] stands 111.3 ± 0.3%; under `COC(=O)c1ccc(C)c(Cl)c1` [compound 484, methyl 3‐chloro‐4‐methylbenzoate], 98.3 ± 14%.
Same read-out and setting: the figure for `CNCc1ccc2ncccc2c1` [compound 366, N‐methyl‐N‐(quinolin‐6‐ylmethyl)amine] is 41.5 ± 2.8%; for `O=C(O)c1ccc(C(F)(F)F)cc1` [compound 539, 4‐(trifluoromethyl)benzoic acid] it is 80 ± 13.8%; for `Cc1cc(N)on1` [compound 10, 3‐methylisoxazol‐5‐amine] it is 67.7 ± 8.7%.
With `CCc1ccc(CNC)cc1` [compound 180, N‐(4‐ethylbenzyl)‐N‐methylamine], the viability at 500 µM stood at 102 ± 4.4%.
As for `OCc1cc2ccccc2s1` [compound 301, 1‐benzothiophen‐2‐ylmethanol], the viability at 500 µM came out at 68.5 ± 7.6%.
For the compound `NCc1ccc2sccc2c1` [compound 294, 1‐benzothiophen‐5‐ylmethylamine], the viability at 500 µM came out at 49.4 ± 20%.
The same measure, in the same setting: under `O=C(O)c1ccc(-c2ccccc2)nc1` [compound 610, 6‐phenylnicotinic acid] stands 78.4 ± 13.4%; under `COC(=O)c1cccc2cc[nH]c12` [compound 396, methyl 1H‐indole‐7‐carboxylate], 35.3 ± 9.5%; under `CNCc1cccc(N2CCCCC2)c1` [compound 656, N‐methyl‐N‐(3‐piperidin‐1‐ylbenzyl)amine], 28.2 ± 9.7%.
On the same count and under the same terms, under `N#Cc1cc(Cl)ccc1O` [compound 218, 5‐chloro‐2‐hydroxybenzonitrile] stands 92.7 ± 13.6%; under `CC(=O)c1ccc(S(C)(=O)=O)cc1` [compound 604, 1‐[4‐(methylsulfonyl)phenyl]ethan‐1‐one], 109 ± 11.7%; under `COc1ccccc1CCC(=O)O` [compound 452, 3‐(2‐methoxyphenyl)propanoic acid], 49.2 ± 15%.
As for `OCc1cc(-c2cccs2)on1` [compound 462, [5‐(2‐thienyl)‐3‐isoxazolyl]methanol], the viability at 500 µM was 80.7 ± 24%.
For `OCc1csc(-c2cccnc2)n1` [compound 566, (2‐pyridin‐3‐yl‐1,3‐thiazol‐4‐yl)methanol], the viability at 500 µM stood at 84.4 ± 17.3%.
With `CNCc1ccc(-c2nccs2)cc1` [compound 654, N‐methyl‐4‐(1,3‐thiazol‐2‐yl)benzylamine], the viability at 500 µM came to 28.2 ± 6.4%.
Same read-out and setting: under `O=C(O)c1cc2cccnc2s1` [compound 445, thieno[2,3‐b]pyridine‐2‐carboxylic acid] stands 97 ± 18.5%; under `O=C(O)CSc1ccc(Cl)cc1` [compound 641, 2‐[(4‐chlorophenyl)thio]acetic acid], 129 ± 24.6%.
Regarding `N#Cc1cccc(-n2ccnc2)c1` [compound 339, 3‐(1H‐imidazol‐1‐yl)benzonitrile], the viability at 500 µM amounted to 72.1 ± 7.8%.
Turning to `Cc1cc(Cl)ccc1C(=O)O` [compound 350, 4‐chloro‐2‐methylbenzoic acid], the viability at 500 µM was found to be 84.2 ± 12.3%.
Regarding `N#Cc1cccc(-c2ccco2)c1` [compound 338, 3‐(2‐furyl)benzonitrile], the viability at 500 µM came to 35.6 ± 7.3%.
The same measure, in the same setting: the figure for `OCc1ccccc1C(F)(F)F` [compound 407, [2‐(trifluoromethyl)phenyl]methanol] is 101 ± 9.7%; for `COc1ccc(C#N)cn1` [compound 108, 6‐methoxynicotinonitrile] it is 108 ± 14.1%.
On the same count and under the same terms, under `NC(=O)Cc1ccc(F)cc1Cl` [compound 519, 2‐(2‐chloro‐4‐fluorophenyl)acetamide] stands 105 ± 15.1%; under `OCc1ccc(N2CCCC2)nc1` [compound 437, [6‐(1‐pyrrolidinyl)‐3‐pyridinyl]methanol], 29.4 ± 4.1%; under `OCc1cn2ccsc2n1` [compound 221, imidazo[2,1‐b]thiazol‐6‐ylmethanol], 97.7 ± 7%.
Same read-out and setting: the figure for `Nc1ccc(N2CCOCC2)cc1` [compound 435, 4‐morpholinoaniline] is 21.3 ± 3.7%; for `Cc1ccc(C(N)=O)c(N)c1` [compound 190, 2-amino-4-methylbenzamide] it is 41.9 ± 11%; for `COC(=O)c1ccccc1-n1cccc1` [compound 628, methyl 2‐(1H‐pyrrol‐1‐yl)benzoate] it is 35.1 ± 9.3%.

Staying with this assay, now noted: Trypanosoma brucei, read-out: T. brucei Alamar Blue (% survival).
As to `O=C1CC(c2ccccc2)=NO1` [compound 272, 3-phenyl-4,5-dihydroisoxazol-5-one], the viability at 500 µM came out at 60.1 ± 21%.
On the same count and under the same terms, under `O=C(O)C1NCCS1` (stereo not drawn) [compound 103, 1,3-thiazolane-2-carboxylic acid] stands 77.9 ± 15.6%.
`Cc1ccc(C(N)=O)c(N)c1` [compound 190, 2-amino-4-methylbenzamide]: the viability at 500 µM came to 41.9 ± 11%.

The assay is the same for the next values; noted with them: Trypanosoma brucei, read-out: T. brucei Alamar Blue (% survival), compound 0.5 mM; percentage of controls.
As to `O=C(O)c1cc2sccc2[nH]1` [compound 328, 4H-thieno[3,2-b]pyrrole-5-carboxylic acid], the viability at 500 µM turned out to be 51.6 ± 13.3%.
The same measure, in the same setting: under `NCc1nc2ccccc2s1` [compound 626, 1,3-benzothiazol-2-ylmethylamine hydrochloride] stands 52.9 ± 13.9%.

Still in this assay, the particulars now being: Trypanosoma brucei, read-out: T. brucei Alamar Blue, Supplementary Table 1; compound 0.5 mM; percentage of controls in the absence of compound; mean ± SD (n=3) or SE (n=2).
Consider `O=C(O)c1cc2sccc2[nH]1` [compound 328, 4H-thieno[3,2-b]pyrrole-5-carboxylic acid], for which the viability at 500 µM was found to be 51.6 ± 13.3%.
With `NCc1nc2ccccc2s1` [compound 626, 1,3-benzothiazol-2-ylmethylamine hydrochloride], the viability at 500 µM came out at 52.9 ± 13.9%.
